In all, about 310,000 compounds went through this assay and about 2,200 (0.71%) showed an effect of 50% or more. Effects have a minus sign here. The list shows a part of the results.
Each compound was assayed against human ether-à-go-go-related gene (hERG) potassium channel (human, UniProt Q12809) (assay: primary screen, population patch clamp on CHO cells stably expressing hERG).
Sequence of human ether-à-go-go-related gene (hERG) potassium channel (Q12809 whole entry, looked up): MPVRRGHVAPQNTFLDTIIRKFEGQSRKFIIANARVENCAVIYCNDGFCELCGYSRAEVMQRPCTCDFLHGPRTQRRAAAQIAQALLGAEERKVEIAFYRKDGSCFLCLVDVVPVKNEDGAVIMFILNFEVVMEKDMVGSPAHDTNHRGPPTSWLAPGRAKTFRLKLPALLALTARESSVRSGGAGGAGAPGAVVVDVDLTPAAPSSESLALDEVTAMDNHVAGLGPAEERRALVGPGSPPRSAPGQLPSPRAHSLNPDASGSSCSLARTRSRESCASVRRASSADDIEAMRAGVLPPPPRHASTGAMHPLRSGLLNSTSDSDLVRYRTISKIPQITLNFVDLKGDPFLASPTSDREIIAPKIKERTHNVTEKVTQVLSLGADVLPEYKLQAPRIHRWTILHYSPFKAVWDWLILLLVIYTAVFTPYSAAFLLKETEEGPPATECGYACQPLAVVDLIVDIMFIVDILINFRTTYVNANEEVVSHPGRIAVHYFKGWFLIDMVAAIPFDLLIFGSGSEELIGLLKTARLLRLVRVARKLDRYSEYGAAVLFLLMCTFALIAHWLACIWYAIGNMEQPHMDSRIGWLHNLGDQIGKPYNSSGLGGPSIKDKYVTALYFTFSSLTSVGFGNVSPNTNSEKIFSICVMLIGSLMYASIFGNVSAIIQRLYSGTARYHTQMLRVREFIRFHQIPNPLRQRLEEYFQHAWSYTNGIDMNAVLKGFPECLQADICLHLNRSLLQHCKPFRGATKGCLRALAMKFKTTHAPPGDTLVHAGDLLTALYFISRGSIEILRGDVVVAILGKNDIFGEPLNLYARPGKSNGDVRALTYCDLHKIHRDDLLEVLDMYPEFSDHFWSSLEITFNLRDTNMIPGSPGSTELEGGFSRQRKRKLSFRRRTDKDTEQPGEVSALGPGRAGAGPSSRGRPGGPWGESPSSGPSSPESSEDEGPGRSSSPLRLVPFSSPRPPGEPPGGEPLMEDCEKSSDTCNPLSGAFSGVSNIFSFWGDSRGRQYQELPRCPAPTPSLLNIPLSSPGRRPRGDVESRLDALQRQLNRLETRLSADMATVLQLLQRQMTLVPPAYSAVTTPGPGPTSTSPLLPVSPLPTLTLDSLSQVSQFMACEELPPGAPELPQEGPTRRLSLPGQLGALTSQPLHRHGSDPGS

SMILES | hERG current change (%, negative = inhibition) at 1uM [%]
COc1ccc(NS(=O)(=O)c2cccc(NC(=O)CCC(=O)c3cccs3)c2)cc1 | 13.7
CCCC(=O)NC(c1ccccc1)c1c(O)ccc2ccccc12 (stereo not drawn) | 13.3
Cc1ccc(C(OCC(O)CNC(CO)C(O)c2ccc([N+](=O)[O-])cc2)c2ccccc2)cc1 (stereo not drawn) | 3.99
Cc1cc(O)c(N)c(C)c1Cl.Cl | 11.1
COc1cccc(N(C(=O)Cn2nnc(-c3ccc(C)o3)n2)C(C(=O)NC(C)(C)C)c2cccs2)c1 (stereo not drawn) | 6.14
C/C(=N\NC(=O)c1ccccc1C)c1cccc([N+](=O)[O-])c1 | 9.71
COc1ccccc1NC(=O)C/C(C)=N/NC(=O)COc1c(Br)cc(Br)cc1OC | 10.8
Cc1ccccc1CN1CCN(C(C)C(=O)NCc2ccccc2)CC1 (stereo not drawn) | 0.872
COc1ccc(-c2nc(N)n(C(=O)c3ccco3)n2)cc1 | 1.93
Cn1c(CCc2ccc(N)cc2)nc2ccccc21 | -0.488
O=C(Nc1ccccc1)c1ccc(N2CCN(c3ccccc3)CC2)c(S(=O)(=O)N2CCOCC2)c1 | -4.09
O=C(NCCNC1CCC(c2ccccc2)CC1)c1cccs1 (stereo not drawn) | 6.95
CCOc1ccc(C(=O)C2CCN(CC(=O)Nc3nccs3)CC2)cc1 | -46.4
CCc1nc(N2CCCC(C)C2)c2oc3ccccc3c2n1.Cl (stereo not drawn) | 9.52
Cc1nc2ccsc2c(=O)n1-c1ccc(Cl)cc1 | 10
O=C(CCCl)N1CCN(c2nc(-c3ccccc3)cs2)CC1 | 7.98
O=C(NCc1ccco1)C1Cc2ccccc2CN1C(=O)c1ccco1 (stereo not drawn) | 5.38
COc1cc2c(cc1OC)-c1cc(NC3CCCC3)nc(=O)n1CC2 | 13.4
O=C(Cc1ncc(C(F)(F)F)cc1Cl)N1CCN(c2ccc(F)cc2)CC1 | -14.4
CCOc1ccc(N(CC(=O)NCc2ccccc2)S(C)(=O)=O)cc1 | -0.437
CC(NCc1ccc(S(N)(=O)=O)cc1)C(=O)Nc1cccc(Cl)c1 (stereo not drawn) | 5.24
O=C(NCCCN1CCCC1=O)c1cccc(S(=O)(=O)N2CCN(c3ccccc3)CC2)c1 | -0.597

SMILES | hERG current change (%, negative = inhibition) at 1uM [%]
CN(CC(=O)NCc1ccco1)S(=O)(=O)c1ccc2c(c1)n(C)c(=O)c(=O)n2C | 2.82
CC(=O)c1ccc(S(=O)(=O)N2CCCC2)cc1 | 2.46
CCS(=O)(=O)N1CCN(C2Cc3ccccc3C2)CC1.O=C(O)C(=O)O | 5.16
C=CCOc1ccc(/C=N/NC(=O)CN2CCOCC2)cc1OCC | 19.5
CSc1nccc(Oc2ccc(C#N)cc2)n1 | 6.42
C/C(=N\OCC(=O)Nc1nc2ccccc2s1)c1ccccc1 | 2.13
COC(=O)C1=C(c2ccc(F)cc2OCc2ccccc2)C[C@@H]2CC[C@H]1N2C(=O)NCc1cccc(C(F)(F)F)c1 | 4.62
Cc1nn(-c2ccc(Cl)cc2)c(Cl)c1/C=N/NC(=O)c1ccc(NS(=O)(=O)c2cccs2)cc1 | 12
Cc1ccc(CNC(=O)CCC2CCCN(Cc3cc4ccccc4o3)C2)o1 (stereo not drawn) | -36.8
CCC1CCCCN1C(=S)NC(=O)c1cccc([N+](=O)[O-])c1 (stereo not drawn) | 17.7
C[C@H](NC(=O)C1CCN(S(=O)(=O)c2ccccc2)CC1)C(=O)NCc1ccc(Cl)cc1Cl | 7.77
Cc1nnc(C)n1/N=C/c1ccc(O)cc1 | 4.83
Cc1c(Cl)c(C(F)(F)F)nn1CC(=O)NCc1ccco1 | 14.5
COc1cccc(-n2c(C)c(C(C)=O)c(C(C)=O)c2C)c1 | 3.89
CCOC(=O)c1sc(NC(C)=O)nc1-c1ccccc1 | 12.8
COc1ccc(N2CSC3=C(C#N)C(c4cc(OC)ccc4OC)CC(=O)N3C2)c(OC)c1 (stereo not drawn) | 12.8
Cc1ccccc1NC(=O)C1c2cccc[n+]2CC(=O)N1c1c(C)cccc1C.[I-] (stereo not drawn) | 9.62
OC[C@@H]1CCCN1Cc1nc(-c2cccs2)no1 | 10.5
CN(C)CCn1c(NC(=O)c2ccc(Cl)cc2)nc2ccccc21 | -4.94
CCc1ccc2nc(N(CCN(C)C)C(=O)c3ccc4ncsc4c3)sc2c1.Cl | -20.7
CCNC(=O)CC1C(=O)N(c2ccc(F)cc2)C(=S)N1CCc1ccncc1 (stereo not drawn) | -4.91
O=c1[nH]c2ccc(S(=O)(=O)N3CCN(c4ccccc4)CC3)cc2[nH]c1=O | 4.03

SMILES | hERG current change (%, negative = inhibition) at 1uM [%]
Cc1cc(C(=O)NNC(=S)NCc2ccco2)n(C)n1.c1ccccc1 | 13.4
Fc1ccc(-c2ccnn2-c2ccccc2)cc1 | 17.1
Cn1ncc(C#N)c1/N=C/N1CCCCC1 | 16.3
CC(C)(C)c1ccc(C(=O)OC/C(O)=C(\C#N)c2nc3ccccc3s2)cc1 | 9.43
CC(=O)c1c(C)oc2c1cc(O)c1ccccc12 | 8.77
COc1ccc(CNC(=O)CCNS(=O)(=O)c2cccc3nsnc23)cc1 | 2.37
COc1ccc(N=C2SC(C(=O)Nc3ccc(OC)cc3)CC(=O)N2CCN2CCOCC2)cc1 (stereo not drawn) | -0.767
COC(=O)c1cc(S(=O)(=O)NCc2cc(OC)c(OC)c(OC)c2)cn1C | 11.7
CN(CCc1ccccn1)C(=O)CCC1CCCN(C(=O)c2ccsc2)C1 (stereo not drawn) | 6.68
Cc1ccc(-n2[nH]c(C)c(C=Nc3ccc(S(=O)(=O)Nc4nc(C)cc(C)n4)cc3)c2=O)c(C)c1 | 8.63
Cc1ccnc(SCc2cc(=O)c(OC(=O)c3ccc(S(=O)(=O)N(C)C)cc3)co2)n1 | 0.257
CCN(CC)c1ccc(NC(=O)COc2ccccc2C#N)cc1S(=O)(=O)Nc1ccccc1OC | 5.28
CCN1CCN(c2ccc(S(=O)(=O)N3CCCCC3)cc2NC(=O)/C=C/c2ccc(OC)c(OC)c2)CC1 | -10
NS(=O)(=O)c1ccc(CCNC(=O)/C=C/c2ccc([N+](=O)[O-])cc2)cc1 | -12.2
COc1ccc(CNC(=O)c2ccc(Br)o2)cc1 | 10.4
Cn1nc(SCC(=O)O)sc1=S | 7.24
CCCCn1nnnc1SCC(=O)NNC(=O)C1CCCCC1 | 3.37
CSCCC(NC(=O)COc1ccccc1)C(=O)N1CC(C)OC(C)C1 (stereo not drawn) | 10.5
Cc1ccc(CNc2cc(C(=O)O)ccc2Cl)s1 | 12.5
CCOc1cc(C2C(C#N)=C(N)SC(N)=C2C#N)ccc1OCCN1CCOCC1 | 3.1
CCCCSC1=NN1c1nc(N)nc(C)c1CC | -7.53
CCN1C(=O)C(CC(=O)Nc2ccccc2)S/C1=N\c1ccccn1 (stereo not drawn) | 11.5

SMILES | hERG current change (%, negative = inhibition) at 1uM [%]
CC1CCN(CCCn2c(=S)[nH]c3ccc(N4CCOCC4)cc3c2=O)CC1 | 12.2
CCCc1cc(=O)oc2cc(C)cc(OC(C)C(=O)NCc3ccncc3)c12 (stereo not drawn) | -9.94
CCOC(=O)C1CCCN(C(=O)c2cc(S(=O)(=O)N(C)C)ccc2N2CCCC2)C1 (stereo not drawn) | -1.51
CCc1ccc(OS(=O)(=O)c2cn(C)c(=O)n(C)c2=O)cc1 | 14.8
O=C1CCC(=O)N1c1ccccc1 | 12.3
CCC(N=c1cc(-c2ccc(OC)cc2)oc2ccc(C)cc12)C(=O)O (stereo not drawn) | -23.6
COc1ccccc1C(=O)COC(=O)COc1cccc2c1OC(C)(C)C2 | 11.8
CC(C)C12CN3CC(C(C)C)(CN(C1)C3(C)C)C2=O | 5.38
CCOc1cc2c(C#N)c(N3CCNCC3)nc(N)c2c(N)n1 | 11
COC(=O)c1ccc(C)c(NC(=O)CSc2nc3[nH]c(=O)cc(O)c3s2)c1 | 18.1
CC(=O)n1cc([C@@H]2C=C(C(=O)NCc3ccccc3)O[C@H](OCCCCO)C2)c2ccccc21 | -16.7
COc1cc(C(=O)NC2CCCCC2)ccc1OCc1ccc(Cl)cc1Cl | 9.14
COc1ccccc1N1CCN(C(=O)Cn2nc3n(C)c4ccccc4n3c(=O)c2=O)CC1 | 2.55
CC(=O)C1=C(O)C(=O)N(c2ccc(Br)cn2)C1c1ccccc1[N+](=O)[O-] (stereo not drawn) | 16.1
CC(Cc1cccs1)NC(=S)Nc1ccccc1 (stereo not drawn) | 11.7
Cc1ccc(NC(=O)CCNC(=O)c2ccc(Cl)cc2)cc1F | 11.1
Cc1cc(C)cc(Nc2ccc(C(=O)O)cc2[N+](=O)[O-])c1 | 12.2
COc1ccccc1-n1c(SCC(=O)NC(C)(C)C)nc(O)c(Cc2ccccc2)c1=O | 3.31
Cc1ccc(NC(=O)Cn2cc(S(=O)(=O)c3ccc(C)cc3)c(=O)c3cc(F)ccc32)cc1 | -1.49
COc1cccc(-n2ccnc2SCC(=O)Nc2nccs2)c1 | -3.42
O=C(NCCc1ccc([N+](=O)[O-])cc1)c1ccccc1 | 7.23

From article PMC4336329 (PLoS ONE, 2015)
